# Literature values, collected in publication PMC11006913.
# This is one part of the list.
# Assays:
# Conditions in all cases: PBM; conditions not shown; double strand, one strand shown; scale: upbm affinity estimate (log intensity, higher = more binding, comparable within an allelic series)
# [1] = biological target: ISX (Homo sapiens) (UniProt Q2M1V0)
# [2] = biological target: PROP1 R112Q (Homo sapiens) (UniProt O75360)
# [3] = biological target: ISX R83Q (Homo sapiens) (UniProt Q2M1V0)
# [4] = biological target: PITX2 L100Q (Homo sapiens) (UniProt Q99697)
# [5] = biological target: PITX2 R108H (Homo sapiens) (UniProt Q99697)
# [6] = biological target: PITX2 R130W (Homo sapiens) (UniProt Q99697)
# [7] = biological target: PITX2 T114P (Homo sapiens) (UniProt Q99697)
# [8] = biological target: NKX2-5 K183E (Homo sapiens) (UniProt P52952)
# [9] = biological target: PROP1 R99Q (Homo sapiens) (UniProt O75360)
# [10] = biological target: NKX2-5 R161P (Homo sapiens) (UniProt P52952)
# [11] = biological target: NKX2-5 R190C (Homo sapiens) (UniProt P52952)
sequence,measurement,setting,value
ATTACAAT [8-mer ATTACAAT],binding signal,[1],12.4
same,binding signal,[2],12.1
CCCCCGGG [8-mer CCCCCGGG],binding signal,[1],9.55
same,binding signal,[3],9.58
same,binding signal,[4],8.29
same,binding signal,[5],7.88
same,binding signal,[6],7.57
same,binding signal,[7],7.92
CTGGGGCA [8-mer CTGGGGCA],binding signal,[1],9.6
same,binding signal,[3],9.71
same,binding signal,[4],8.07
same,binding signal,[5],8.11
same,binding signal,[6],8.05
same,binding signal,[7],8.14
CCTCTTCA [8-mer CCTCTTCA],binding signal,[8],11.6
CCTCTTAG [8-mer CCTCTTAG],binding signal,[8],11.5
CCGGGCCC [8-mer CCGGGCCC],binding signal,[1],9.63
same,binding signal,[3],9.65
same,binding signal,[4],8.06
same,binding signal,[5],7.81
same,binding signal,[6],7.71
same,binding signal,[7],7.91
same,binding signal,[2],10.7
same,binding signal,[9],10.8
CCGGGCCA [8-mer CCGGGCCA],binding signal,[1],9.65
same,binding signal,[3],9.71
same,binding signal,[2],10.9
same,binding signal,[9],10.9
CCGCGCGG [8-mer CCGCGCGG],binding signal,[1],9.79
same,binding signal,[3],9.82
same,binding signal,[2],10.9
same,binding signal,[9],11.2
CGCACTCA [8-mer CGCACTCA],binding signal,[8],10.7
GAGTACCC [8-mer GAGTACCC],binding signal,[8],10.5
AAGTGGGA [8-mer AAGTGGGA],binding signal,[8],11.6
GCGGGCCC [8-mer GCGGGCCC],binding signal,[1],9.69
same,binding signal,[3],9.6
same,binding signal,[2],10.7
same,binding signal,[9],10.9
GCAAGTGC [8-mer GCAAGTGC],binding signal,[8],10.6
AATTAAAG [8-mer AATTAAAG],binding signal,[3],13.4
AATTAAAA [8-mer AATTAAAA],binding signal,[3],13.2
CCGGGGGC [8-mer CCGGGGGC],binding signal,[1],9.61
same,binding signal,[3],9.61
same,binding signal,[4],8.01
same,binding signal,[5],7.84
same,binding signal,[6],7.42
same,binding signal,[7],7.8
CCCCTTGA [8-mer CCCCTTGA],binding signal,[8],11.7
CAAAGTGC [8-mer CAAAGTGC],binding signal,[8],10.7
AAAGTGCG [8-mer AAAGTGCG],binding signal,[8],10.7
CTAAGGAC [8-mer CTAAGGAC],binding signal,[8],10.6
AAGGACTT [8-mer AAGGACTT],binding signal,[8],10.6
AATTGACA [8-mer AATTGACA],binding signal,[3],11.9
CCTAATCC [8-mer CCTAATCC],binding signal,[1],11.3
same,binding signal,[4],11.4
same,binding signal,[5],9.52
same,binding signal,[6],8.49
same,binding signal,[7],9.96
CGAGTGTC [8-mer CGAGTGTC],binding signal,[8],10.5
ACGAGTGC [8-mer ACGAGTGC],binding signal,[8],10.6
GGCCCCCA [8-mer GGCCCCCA],binding signal,[1],9.7
same,binding signal,[3],9.79
same,binding signal,[2],10.8
same,binding signal,[9],10.8
GGCCGCCC [8-mer GGCCGCCC],binding signal,[1],9.81
same,binding signal,[3],9.65
same,binding signal,[4],7.92
same,binding signal,[5],7.86
same,binding signal,[6],7.69
same,binding signal,[7],7.89
GGTACTCA [8-mer GGTACTCA],binding signal,[8],10.7
AATACACT [8-mer AATACACT],binding signal,[8],11.4
GAGCACTC [8-mer GAGCACTC],binding signal,[8],10.7
GTACTTAA [8-mer GTACTTAA],binding signal,[8],11.4
same,binding signal,[10],12.9
same,binding signal,[11],11.1
CTGAGTAC [8-mer CTGAGTAC],binding signal,[8],10.6
CGAACACG [8-mer CGAACACG],binding signal,[8],10.4
same,binding signal,[10],10.3
same,binding signal,[11],10.4
ACCTCTTA [8-mer ACCTCTTA],binding signal,[8],11.8
AGCTCTTG [8-mer AGCTCTTG],binding signal,[8],10.8
same,binding signal,[10],11.4
same,binding signal,[11],10.6
CCCTCTTA [8-mer CCCTCTTA],binding signal,[8],11.5
CAGCTCCG [8-mer CAGCTCCG],binding signal,[8],10.1
same,binding signal,[10],10.3
same,binding signal,[11],10.2
ACCAGCTG [8-mer ACCAGCTG],binding signal,[8],10
same,binding signal,[10],10.2
same,binding signal,[11],10
AAGTACCC [8-mer AAGTACCC],binding signal,[8],10.8
same,binding signal,[10],12.6
ACAAGTAC [8-mer ACAAGTAC],binding signal,[8],11
same,binding signal,[10],12.5
same,binding signal,[11],10.9
GCACTTAA [8-mer GCACTTAA],binding signal,[8],11.6
same,binding signal,[10],13.1
same,binding signal,[11],10.9
AGGGCACT [8-mer AGGGCACT],binding signal,[8],10.5
CCCGCGCG [8-mer CCCGCGCG],binding signal,[8],10.2
same,binding signal,[10],10.2
same,binding signal,[11],10.2
CCAAGGCG [8-mer CCAAGGCG],binding signal,[8],10.1
same,binding signal,[10],10.2
same,binding signal,[11],10.1
ATAAAGTG [8-mer ATAAAGTG],binding signal,[8],11.4
GAGAGTGC [8-mer GAGAGTGC],binding signal,[8],10.7
ACTAAGTG [8-mer ACTAAGTG],binding signal,[8],11.5
same,binding signal,[10],12.6
same,binding signal,[11],10.9
GCGGTGCA [8-mer GCGGTGCA],binding signal,[8],10.1
same,binding signal,[10],10.3
same,binding signal,[11],10.1
CGGTGACA [8-mer CGGTGACA],binding signal,[8],10.4
same,binding signal,[10],10.5
same,binding signal,[11],10.4
AACACTTG [8-mer AACACTTG],binding signal,[8],11.1
same,binding signal,[10],12.2
same,binding signal,[11],10.7
ACGCACTC [8-mer ACGCACTC],binding signal,[8],10.6
CGGGAACC [8-mer CGGGAACC],binding signal,[8],10.2
same,binding signal,[10],10.4
same,binding signal,[11],10.1
CCACTTGA [8-mer CCACTTGA],binding signal,[8],12.7
same,binding signal,[10],13.6
same,binding signal,[11],10.6
CACTTATC [8-mer CACTTATC],binding signal,[8],11.8
same,binding signal,[10],12.9
same,binding signal,[11],10.9
GCACTCCA [8-mer GCACTCCA],binding signal,[8],10.6
ATAAGAGG [8-mer ATAAGAGG],binding signal,[8],11.7
CCACCACG [8-mer CCACCACG],binding signal,[8],10.4
same,binding signal,[10],10.4
same,binding signal,[11],10.3
AAGTGGGG [8-mer AAGTGGGG],binding signal,[8],11.4
same,binding signal,[10],12.4
same,binding signal,[11],10.4
AAGTGCGC [8-mer AAGTGCGC],binding signal,[8],10.6
CAACCTGG [8-mer CAACCTGG],binding signal,[8],10.4
same,binding signal,[10],10.6
same,binding signal,[11],10.4
CGAGCACG [8-mer CGAGCACG],binding signal,[8],10.2
same,binding signal,[10],10.3
same,binding signal,[11],10.3
AAGTGGTG [8-mer AAGTGGTG],binding signal,[8],11.6
same,binding signal,[10],12.5
same,binding signal,[11],10.6
AAAGTGGT [8-mer AAAGTGGT],binding signal,[8],11.6
CCCGGGCA [8-mer CCCGGGCA],binding signal,[8],10.1
same,binding signal,[10],10.2
same,binding signal,[11],10
CCAGCGTA [8-mer CCAGCGTA],binding signal,[8],10.3
same,binding signal,[10],10.5
same,binding signal,[11],10.4
AAGTACTT [8-mer AAGTACTT],binding signal,[8],11.2
same,binding signal,[10],12.9
same,binding signal,[11],10.6
